The other results are listed elsewhere or left out.
These compounds were tested on S. aureus RN4220 (assay: growth inhibition call (relative growth <= 0.2)). Settings: 50 µM.
For `NCc1cnc(Nc2ccccc2)nc1`, the growth inhibition call was “inactive”.
`C[C@H](CO)N1C[C@H](C)[C@@H](CN(C)Cc2ccc(-c3ccccc3)cc2)Oc2ccc(NC(=O)Nc3cccc4ccccc34)cc2CC1=O` was tested, and the growth inhibition call was “inactive”.
With `CN1CCN(C(=O)C[C@H]2CC[C@@H]3[C@@H](COc4ccc(NC(=O)c5cscn5)cc4C(=O)N3C)O2)CC1` the growth inhibition call was “inactive”.
With `C[C@@H]1CCCCO[C@H](CN(C)S(=O)(=O)c2cccs2)[C@@H](C)CN([C@H](C)CO)C(=O)c2cc(NC(=O)Nc3ccccc3)ccc2O1` the growth inhibition call was “inactive”.
In the case of `N[C@H]1CCCN(Cc2cccc(O)c2)C1`, the growth inhibition call was “inactive”.
With `O=C(C[C@H]1C[C@@H]2c3cc(NS(=O)(=O)c4ccc(F)cc4)ccc3O[C@@H]2[C@H](CO)O1)NCc1ccc(Oc2ccccc2)cc1` the growth inhibition call was “inactive”.
For `CC(=O)OCC1=C(C(=O)O)N2C(=O)[C@@H](NC(=O)CSc3ccncc3)[C@H]2SC1`, the growth inhibition call was “active”.
For `C[C@@H]1CN([C@@H](C)CO)C(=O)c2cc(NS(=O)(=O)c3cn(C)cn3)ccc2O[C@@H]1CN(C)S(=O)(=O)c1ccc(Cl)cc1`, the growth inhibition call was “inactive”.
`C[C@@H]1CN([C@H](C)CO)C(=O)c2cccc(NC(=O)c3ccc(-c4nccs4)cc3)c2O[C@H]1CN(C)C(=O)Nc1ccc2c(c1)OCO2` was tested, and the growth inhibition call was “inactive”.
With `Cn1c(=O)c(C(=O)NCCO)c(O)c2ccccc21` the growth inhibition call was “inactive”.
For `C[C@@H]1CN([C@H](C)CO)C(=O)c2cccc(NS(=O)(=O)c3cn(C)cn3)c2O[C@@H]1CN(C)C(=O)Nc1ccc(F)cc1`, the growth inhibition call was “inactive”.
In the case of `C[C@H]1CN([C@@H](C)CO)C(=O)c2cccc(NC(=O)Nc3ccc(C(F)(F)F)cc3)c2O[C@H]1CN(C)C(=O)NC1CCCCC1`, the growth inhibition call was “active”.
In the case of `C[C@H]1CN([C@@H](C)CO)C(=O)c2cccc(NC(=O)Nc3cccc4ccccc34)c2O[C@H]1CN(C)Cc1ccc(-c2ccccc2)cc1`, the growth inhibition call was “inactive”.
With `COc1ccc(NC(=O)Nc2ccc3c(c2)C(=O)N([C@H](C)CO)C[C@@H](C)[C@H](CN(C)Cc2ccc(C(F)(F)F)cc2)OCCCC[C@H](C)O3)cc1` the growth inhibition call was “inactive”.
`C[C@@H]1CN([C@H](C)CO)C(=O)c2cccc(NC(=O)c3cnccn3)c2O[C@@H]1CN(C)C(=O)NC1CCCCC1` was tested, and the growth inhibition call was “inactive”.
`C[C@H](CO)N1C[C@H](C)[C@H](CN(C)Cc2ccc(C(F)(F)F)cc2)Oc2ccc(NC(=O)CCC(F)(F)F)cc2CC1=O` was tested, and the growth inhibition call was “inactive”.
For `C[C@@H]1CCCCO[C@H](CN(C)C(=O)Nc2cccc3ccccc23)[C@@H](C)CN([C@H](C)CO)C(=O)c2cc(NC(=O)C3CCCCC3)ccc2O1`, the growth inhibition call was “inactive”.
In the case of `Cn1cc(S(=O)(=O)Nc2ccc3c(c2)OCCO3)c(=O)n(C)c1=O`, the growth inhibition call was “inactive”.
For `C[C@@H]1CCCCO[C@@H](CN(C)C(=O)c2ccncc2)[C@@H](C)CN([C@H](C)CO)C(=O)c2cc(NC(=O)C3CCCCC3)ccc2O1`, the growth inhibition call was “inactive”.
For `Nc1nc(Cl)nc(Cl)n1`, the growth inhibition call was “inactive”.
With `COc1ccc(S(=O)(=O)N(C)C[C@H]2Oc3ccc(NS(=O)(=O)c4c(C)noc4C)cc3C(=O)N([C@H](C)CO)C[C@@H]2C)cc1` the growth inhibition call was “inactive”.
`C[C@H](CO)N1C[C@H](C)[C@@H](CN(C)Cc2ccc(C(=O)Nc3ccccc3N)cc2)Oc2ccc(NC(=O)Cc3ccccc3)cc2C1=O` was tested, and the growth inhibition call was “inactive”.
In the case of `O=C([C@H]1CCCCN1)N1CCCC1`, the growth inhibition call was “inactive”.
In the case of `C[C@@H]1CN([C@H](C)CO)C(=O)c2cc(NC(=O)CCCN(C)C)ccc2O[C@@H](C)CCCCO[C@H]1CN(C)CC1CCCCC1`, the growth inhibition call was “inactive”.
`C[C@H](CO)N1C[C@H](C)[C@H](CN(C)S(=O)(=O)c2cn(C)cn2)Oc2ccc(NC(=O)Cc3cn(C)c4ccccc34)cc2CC1=O` was tested, and the growth inhibition call was “inactive”.
In the case of `CCC[C@@H](O)C#Cc1cnc2c(c1)C(=O)N([C@H](C)CO)C[C@H](C)[C@H](CN(C)S(=O)(=O)c1cccs1)O2`, the growth inhibition call was “inactive”.
For `Cc1ccc(S(=O)(=O)Nc2ccc3c(c2)C(=O)N([C@@H](C)CO)C[C@H](C)[C@@H](CN(C)C(=O)Nc2cccc4ccccc24)OCCCC[C@H](C)O3)cc1`, the growth inhibition call was “inactive”.
`C[C@@H]1CN([C@@H](C)CO)C(=O)CCCn2nncc2CO[C@H]1CN(C)C(=O)c1ccc(N2CCN(C)CC2)cc1` was tested, and the growth inhibition call was “inactive”.
In the case of `COc1ccc(NC(=O)Nc2ccc3c(c2)C(=O)N([C@H](C)CO)C[C@H](C)[C@H](CN(C)C(=O)NC2CCCCC2)OCCCC[C@H](C)O3)cc1`, the growth inhibition call was “inactive”.
With `CO[C@H]1CN(C)C(=O)c2cc(NC(=O)C3CC3)ccc2OC[C@H](C)N(C(=O)CN2CCOCC2)C[C@H]1C` the growth inhibition call was “inactive”.

From the antibiotic and cytotoxicity screens of Wong et al. (2023)
